Source: article PMC9911399, “Two distinct binding modes provide the RNA-binding protein RbFox with extraordinary sequence specificity”
Where a chain is given by its changes, count along the chain named. The list shows a part of the results.

T1: RBFOX1 RRM (Homo sapiens, UniProt Q9NWB1 109-208)
T1 sequence: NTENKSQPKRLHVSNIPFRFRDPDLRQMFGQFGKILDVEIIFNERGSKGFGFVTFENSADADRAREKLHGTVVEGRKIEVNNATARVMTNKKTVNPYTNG

B1: CUUGACG (DNA:RNA)
RNA: GGGAGACCGGAAUUCAGAUUGUCCCUUGACGUUAAAUCCCGUCGUAGCCACCA
DNA 1: CAATCTGAATTCCGGTCTCCC
DNA 2: TGGTGGCTACGACGGGATT
B2: GUCGGGC (DNA:RNA)
RNA: B1 RNA with C25G, U27C, A29G, C30G, G31C
DNA 1: CAATCTGAATTCCGGTCTCCC
DNA 2: TGGTGGCTACGACGGGATT
B3: AGCUCAA (DNA:RNA)
RNA: GGGAGACCGGAAUUCAGAUUGUCCAGCUCAAUUAAAUCCCGUCGUAGCCACCA
DNA 1: CAATCTGAATTCCGGTCTCCC
DNA 2: TGGTGGCTACGACGGGATT
B4: CAUACAC (DNA:RNA)
RNA: B3 RNA with A25C, G26A, C27U, U28A, A31C
DNA 1: CAATCTGAATTCCGGTCTCCC
DNA 2: TGGTGGCTACGACGGGATT
B5: CAUAGAU (DNA:RNA)
RNA: B1 RNA with U26A, G28A, A29G, C30A, G31U
DNA 1: CAATCTGAATTCCGGTCTCCC
DNA 2: TGGTGGCTACGACGGGATT
B6: UCAGAUA (DNA:RNA)
RNA: B1 RNA with C25U, U26C, U27A, C30U, G31A
DNA 1: CAATCTGAATTCCGGTCTCCC
DNA 2: TGGTGGCTACGACGGGATT
B7: CAGCGGG (DNA:RNA)
RNA: B1 RNA with U26A, U27G, G28C, A29G, C30G
DNA 1: CAATCTGAATTCCGGTCTCCC
DNA 2: TGGTGGCTACGACGGGATT
B8: GAUCUCU (DNA:RNA)
RNA: B1 RNA with C25G, U26A, G28C, A29U, G31U
DNA 1: CAATCTGAATTCCGGTCTCCC
DNA 2: TGGTGGCTACGACGGGATT
B9: UAGGCUC (DNA:RNA)
RNA: B3 RNA with A25U, G26A, C27G, U28G, A30U, A31C
DNA 1: CAATCTGAATTCCGGTCTCCC
DNA 2: TGGTGGCTACGACGGGATT

Target: T1, RBFOX1 RRM
Test: EMSA; HiTS-Eq, 1 nM pool, 10 min; buffer printed only for the single-RNA assays: 10 mM Tris pH 7.5, 150 mM NaCl, 3.4 mM EDTA, 0.001% NP-40, 30 C
Conditions: tags: His6 N-terminal (pET28a); label: 5' 32P
In short: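 Purified RbFox RRM, wild type or mutant, was incubated for 10 min in 50 µL with 1 nM of a 5′-radiolabelled RNA pool carrying 7 randomized nucleotides, whose flanks were annealed to DNA oligonucleotides, over a series of increasing protein concentrations. Unbound RNA was resolved on 8% native PAGE, cut out, reverse-transcribed, barcoded by PCR and sequenced on an Illumina HiSeq 2500. Relative association constants were derived from changes in read counts for each RNA species versus the control reaction and normalised to the cognate motif.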

Compared with B1, B2 is higher in binding signal: 0.00838 KA relative to UGCAUGU for the first, 0.0126 KA relative to UGCAUGU for the second.

Compared with B3, B4 is lower in binding signal: 0.00348 KA relative to UGCAUGU for the first, 0.000201 KA relative to UGCAUGU for the second.

First: B5
Second: B6
The binding signal of the first is higher: 0.00513 KA relative to UGCAUGU for the first, 0.00488 KA relative to UGCAUGU for the second.

Compared with B7, B8 is higher in binding signal: 0.00703 KA relative to UGCAUGU for the first, 0.0194 KA relative to UGCAUGU for the second.

B9 was tested, and the binding signal was 0.0162 KA relative to UGCAUGU.
